# In PubChem BioAssay (Tox21):
# “And” between values parts separate entries of the source, which are not always exact repeats. Equal entries are not always repeated. The inconclusive results got no clear call from the source; some entries with a clear call stand among them for comparison. Potencies of inconclusive entries are doubtful fits and often do not repeat. Where a structure was tested more than once in an assay, its records may differ in their call. The source made the active and inactive calls. Calls come from the whole dose curve; as a rule, active = well fitted cell-killing curve with a large enough effect in the repeat runs; inconclusive = weak or mixed curves; inactive = flat fitted curve, though single readings scatter.
# Assay: qHTS assay to identify small molecule antagonists of the estrogen related receptor (ERR) signaling pathway from Tox21 library - cell viability counter screen (AID 1224834); note: nearly all actives have a fitted effect of over 30% in size
# Details: ERR reporter cells viability, CellTiter-Fluor, 17.5 h; series mostly up to 92.4 µM; viability change, negative = cytotoxic: at the top concentration
# Text: National Center for Advancing Translational Sciences [NCATS]
# NIH Chemical Genomics Center [NCGC]
# U.S. Environmental Protection Agency [EPA]
# National Institutes of Environmental Health Sciences [NIEHS]
# National Toxicology Program [NTP]
# U.S. Food and Drug Administration [FDA]
# Estrogen related receptors (ERRs), the first orphan nuclear receptors discovered, play an important role in the control of cellular energy metabolism. ERRs are required for high-energy production in response to the environmental challenges. ERR-alpha was also identified as an adverse marker for breast cancer progression; ERR-alpha-positive tumors have a poor prognosis. To screen and to identify environmental compounds that perturb the ERR signaling pathways could provide valuable information for potential therapeutic or preventive measures in the treatment of metabolic disease. To differentiate true ERR antagonists or agonist from cytotoxic substances, the assay is multiplexed with cell viability assay.
# Tox21 Assay Protocol Summary:
# The ERR cells were dispensed at 2,000 cells/5 ul/well in 1536-well white plates using a Multidrop dispenser. After the assay plates were incubated at a 37 C/5% CO2 incubator for 6 hours, 23 nL of compounds dissolved in DMSO, positive and negative controls or DMSO only was transferred to the assay plate by a pin tool. The plates were incubated at 37 C for 17.5 hours. 1 ul/well of CellTiter-Fluor reagent was added into the assay plates using a Flying Reagent Dispenser. After 30-minute incubation at 37 C/5% CO2, the fluorescence intensity in the plates was measured using a ViewLux plate reader.
# % is set by controls: 0 for no effect and ±100 for the full control effect; potency is the fitted concentration of half-maximal effect; tags give direction and shape of the fitted curve.
SMILES,Potency,"viability change, negative = cytotoxic"
O=C(O)Cc1ccccc1Nc1c(Cl)cccc1Cl,"inconclusive: 61.1 µM [cytotoxic, partial curve]",
OC[C@H]1O[C@@H]2O[C@H]3[C@H](O)[C@@H](O)[C@@H](O[C@H]4[C@H](O)[C@@H](O)[C@@H](O[C@H]5[C@H](O)[C@@H](O)[C@@H](O[C@H]6[C@H](O)[C@@H](O)[C@@H](O[C@H]7[C@H](O)[C@@H](O)[C@@H](O[C@H]1[C@H](O)[C@H]2O)O[C@@H]7CO)O[C@@H]6CO)O[C@@H]5CO)O[C@@H]4CO)O[C@@H]3CO,inactive,
CC1CCCCN1CCCOC(=O)c1ccc(OC2CCCCC2)cc1 (stereo not given),inconclusive: 29.8 µM [cytotoxic],
S=c1nc[nH]c2nc[nH]c12,"inconclusive: 2.99 µM [cytotoxic, full curve] and inconclusive: 15 µM [cytotoxic, partial curve]",
c1ccc(C(O[C@@H]2CCCN(CCc3ccc4c(c3)OCO4)C2)c2ccccc2)cc1,"inconclusive: 68.6 µM [cytotoxic, single point]",
CC(=O)O[C@]1(C(C)=O)CC[C@H]2[C@@H]3C=C(Cl)C4=CC(=O)CC[C@]4(C)[C@H]3CC[C@@]21C,"inconclusive: 33.5 µM [cytotoxic, single point]",
C=CN1CCCC1=O,inactive,
NC1[C@H]2CN(c3nc4c(cc3F)c(=O)c(C(=O)O)cn4-c3ccc(F)cc3F)C[C@@H]12 (stereo not given in full),"inconclusive: 18.8 µM [cytotoxic, partial curve]",
CCC(=O)O[C@H]1[C@H](O[C@@H]2[C@@H](C)[C@H](O[C@H]3C[C@@](C)(OC)[C@@H](O)[C@H](C)O3)[C@@H](C)C(=O)O[C@H](CC)[C@@](C)(O)[C@H](O)[C@@H](C)C(=O)[C@H](C)C[C@@]2(C)O)O[C@H](C)C[C@@H]1N(C)C,"inconclusive: 22.8 µM [cytotoxic, partial curve]",
CCN(Cc1c(F)cccc1Cl)c1c([N+](=O)[O-])cc(C(F)(F)F)cc1[N+](=O)[O-],"inconclusive: 48.6 µM [cytotoxic, partial curve]",
FC(F)(F)c1ccccc1Cl,,inactive: -2.09%
Nc1ccc(O)cc1,active: 31.8 µM,
CCc1nc(N)nc(N)c1-c1ccc(Cl)cc1,"inconclusive: 8.77 µM [cytotoxic, full curve, poor fit] and inconclusive: 17.2 µM [cytotoxic, full curve] and inconclusive: 8.41 µM [cytotoxic, full curve, poor fit]",
OC[C@H]1O[C@@H](n2cnc3c(=S)nc[nH]c32)[C@H](O)[C@@H]1O,"inconclusive: 13.3 µM [cytotoxic, full curve]",
Nc1ccc(Oc2ccc(N)c(N)c2)cc1,active: 27.3 µM,
c1cc(N(CC2CO2)CC2CO2)ccc1OCC1CO1 (stereo not given),active: 48.6 µM,
CCCC(CCC)C(=O)O,"inconclusive: 68.6 µM [rising, partial curve, poor fit]",
CN1CCc2cccc3c2[C@H]1Cc1ccc(O)c(O)c1-3,active: 27.6 µM and active: 22.8 µM and active: 26.6 µM,
O=C(OCC(O)CO)c1ccccc1Nc1ccnc2c(C(F)(F)F)cccc12 (stereo not given),"inconclusive: 33.5 µM [cytotoxic, partial curve]",
S=C1NC=NC2N=CNC12 (stereo not given),"inconclusive: 9.69 µM [cytotoxic, full curve]",

SMILES,Potency,"viability change, negative = cytotoxic"
CSC(=O)c1cccc2nnsc12,,inactive: 1.06%
CCCCCCc1ccc(O)cc1O,"inconclusive: 54.5 µM [cytotoxic, partial curve] and inconclusive: 18.8 µM [cytotoxic, partial curve, poor fit]",
O=C(CC(=O)c1ccccc1)c1ccccc1,inconclusive: 73.7 µM [cytotoxic],
OC1CCCCC1,inactive,
CCCOC(=O)c1ccc(O)cc1,"inconclusive: 54.5 µM [cytotoxic, partial curve]",
COc1ccccc1N1CCN(CC(O)COc2cccc3ccccc23)CC1 (stereo not given),"inconclusive: 33.5 µM [cytotoxic, single point]",
Nc1nc2ccccc2[nH]1,inactive,
CC(C)(O)c1ccc(CNC(=O)c2cccnc2Oc2ccc3nonc3c2)cc1,"inconclusive: 68.6 µM [cytotoxic, partial curve]",
CC(=O)Nc1cc(S(=O)(=O)O)cc2cc(S(=O)(=O)O)c(N=Nc3ccccc3)c(O)c12,active: 24.3 µM,
Cc1c(OCC(F)(F)F)ccnc1CS(=O)c1nc2ccccc2[nH]1 (stereo not given),"inconclusive: 61.1 µM [cytotoxic, partial curve]",
CN(Cc1cnc2nc(N)nc(N)c2n1)c1ccc(C(=O)N[C@@H](CCC(=O)O)C(=O)O)cc1,"inconclusive: 61.1 nM [cytotoxic, full curve] and inconclusive: 66.8 nM [cytotoxic, full curve, poor fit]",
N[C@@H](Cc1cc(I)c(Oc2cc(I)c(O)c(I)c2)c(I)c1)C(=O)O,inactive,
Nc1ccc(S(N)(=O)=O)cc1,"inconclusive: 77.4 µM [cytotoxic, partial curve, poor fit]",
Oc1ccc(Sc2ccc(O)cc2)cc1,"inconclusive: 57.2 µM [cytotoxic, partial curve, poor fit]",
NC(=Nc1ccccc1)Nc1ccccc1,"inconclusive: 0.243 µM [cytotoxic, single point]",
Cn1cnc([N+](=O)[O-])c1Sc1ncnc2nc[nH]c12,"inconclusive: 30.5 µM [cytotoxic, partial curve] and inconclusive: 23.7 µM [cytotoxic, partial curve]",
CN1CC[C@H](c2c(O)cc(O)c3c(=O)cc(-c4ccccc4Cl)oc23)[C@H](O)C1,"inconclusive: 0.168 µM [cytotoxic, full curve]",
COc1cccc(N)c1,"inconclusive: 17.4 µM [cytotoxic, full curve]",
CCCCN(CCCC)CCC(O)c1cc2c(Cl)cc(Cl)cc2c2cc(C(F)(F)F)ccc12 (stereo not given),inconclusive: 26.6 µM [cytotoxic],
CCN(CC)CCCN(c1ccccc1)C1Cc2ccccc2C1,"inconclusive: 33.5 µM [cytotoxic, single point]",
